In PubChem BioAssay AID1466 (National Center for Advancing Translational Sciences (NCATS), 2008):
Hit rate of the full screen: of about 200,000 compounds, about 10 (0.005%) were called active. This list was built around the results that the source calls inconclusive (neither active nor inactive); the mix of calls is not that of the screen. Calls follow the shape of the dose curve; as a rule, active = well fitted inhibition curve with a large enough effect; inconclusive = small, poorly fitted or top-dose-only effect, or effect the other way, or another doubt; inactive = no such curve, though single readings can be large or run the other way. Potencies beside an inconclusive call are fits to weak or partial responses and may not hold up.

Each compound was assayed against Lysosomal alpha-glucosidase (Homo sapiens) (UniProt P10253) (assay: qHTS Assay for Inhibitors of Human alpha-Glucosidase as a Potential Chaperone Treatment of Pompe Disease). Settings: purified human GAA, 4-MU-alpha-glucoside fluorescence; activity change, negative = inhibition: at 76.9 µM (top of the series) unless noted.
Outline: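 Read-out is 4-methylumbelliferone fluorescence (Ex 365/Em 440 nm) after NaOH/glycine stop at pH 10. Enzyme 4 nM, substrate 400 uM, pH 5.0 citrate buffer, 20 min room temperature; AC50 from Hill-equation concentration-response.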
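For activity change, negative = inhibition in this document: plate controls were uninhibited enzyme wells for no effect and no-enzyme background for full effect.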
Potency is read from the fitted curve at half-maximal effect; tags tell the direction and shape of the fitted curve.

Potency, inconclusive:
Clc1ccc(OCc2nn3c(C4CCCCC4)nnc3s2)cc1 28.2 µM [inhibitor, single point]
CC(C)(C)c1ccc(CN(Cc2ccco2)Cc2nnnn2C2CCCC2)cc1 56.2 µM [inhibitor, single point]
CCOC(=O)c1c(-c2ccc(C)o2)csc1NC(=O)CSc1nncs1 25.1 µM [inhibitor, single point]
c1ccc(OCc2nn3c(-c4ccncc4)nnc3s2)cc1 0.178 µM [inhibitor, full curve, poor fit]
COc1ccccc1/C=N/NC(=O)C1=NNC(c2ccccc2)(c2ccccc2)C1 7.94 µM [inhibitor, single point]
COc1cccc(-n2c(SCC(N)=O)nnc2-c2c[nH]c3ccccc23)c1 22.4 µM [inhibitor, partial curve, poor fit]
Oc1ccc(-c2csc(NCc3ccco3)n2)cc1 25.1 µM [inhibitor, single point]
OC(c1ccc(OCc2ccccc2)cc1)c1nnc(-c2ccccc2)o1 (centres undefined) 12.6 µM [inhibitor, partial curve]
Cc1ccc(-c2nc(N=Nc3ccc(O)cc3)n[nH]2)cc1 31.6 µM [inhibitor, single point]
CN(c1ccccc1)c1nc(N)c([N+](=O)[O-])c(NCc2ccco2)n1 3.98 µM [inhibitor, single point]
O=C(O)c1ccc(NC(=O)C2CCCCC2)cc1 50.1 µM [inhibitor, single point]
CC(C)(C)C1CCc2nc(NC(=O)Cc3cn4ccsc4n3)sc2C1 (centres undefined) 56.2 µM [inhibitor, partial curve, poor fit]
N=c1n(Cc2ccccc2)c2ccccc2n1CC(O)COc1ccc(Cl)cc1Cl (centres undefined) 0.708 µM [activator, full curve, poor fit]
COc1ccccc1-c1nnc(SCc2nc3ccccc3[nH]2)n1C 1.26 µM [inhibitor, full curve, poor fit]
c1ccc(-c2cc(-c3nn4c(-c5ccco5)nnc4s3)c3ccccc3n2)cc1 5.62 µM [inhibitor, full curve]
O=C(CSc1nc2ccc(Cl)cc2[nH]1)c1ccc2c(c1)OCO2 8.91 µM [inhibitor, full curve]
CCc1ccc2c(c1)C(=O)C(=O)N2CC(=O)Nc1ccc(NC(=O)c2ccccn2)cc1 5.62 µM [inhibitor, single point]
Cc1cccc(NC(=S)N2CCC(C(N)=O)(N3CCCCC3)CC2)c1C 28.2 µM [inhibitor, single point]
COCC1CCCN(Cc2cn(-c3ccccc3F)nc2-c2cc(C)sc2C)C1 (centres undefined) 50.1 µM [inhibitor, single point]
C1=C(c2ccccc2)CCN(c2ncnc3nc[nH]c23)C1 50.1 µM [inhibitor, single point]
CCOC(=O)N1CCN(CC(=O)Nc2ccc([N+](=O)[O-])cc2C(=O)Nc2ccccc2F)CC1 31.6 µM [inhibitor, single point]
CC(=O)Nc1cc2ccc(OC(C)=O)cc2oc1=O 35.5 µM [activator, partial curve]
CCOC(=O)c1c(NC(=O)CSc2nnc(C)c(=O)[nH]2)sc2c1CCCC2 56.2 µM [inhibitor, single point]
COc1ccc(C2C(C#N)=C(SC)NC3=C2C(=O)CC(C)(C)C3)cc1 (centres undefined) 11.2 µM [inhibitor, single point]
Cc1oc2c(c1C(=O)NCc1cc(C(=O)O)co1)CCCC2 8.91 µM [inhibitor, single point]
O=C(CCN1C(=O)c2ccccc2C1=O)NCCC1=CCCCC1 0.178 µM [inhibitor, partial curve, poor fit]
CC(=O)Nc1ccc(NC(=O)Cc2sc(-c3cccnc3)nc2-c2ccc(C)cc2)cc1 5.62 µM [inhibitor, single point]
Cc1cc2c(cc1C)C(c1cccc([N+](=O)[O-])c1)CC(=O)N2 (centres undefined) 56.2 µM [inhibitor, single point]
CCOc1c(C)cc(-c2ncccc2O)cc1C 28.2 µM [activator, single point]
CCS(=O)(=O)c1nn2c(N)c(/C=C3/C=CC(=O)C(OC)=C3)c(=O)nc2s1 15.8 µM [inhibitor, partial curve]
OC(CN=c1sc2ccccc2n1CC(O)COc1ccccc1)COc1ccccc1 (centres undefined) 50.1 µM [inhibitor, partial curve, poor fit]
COC(=O)c1ccc2c(=O)n(CCCCCC(=O)N3CCN(c4ccc(F)cc4)CC3)c(=O)[nH]c2c1 12.6 µM [inhibitor, single point]
Cc1cc(-c2ccc3ccccc3c2)n2ncnc2n1 25.1 µM [activator, single point]
COc1cc(/C=C/C(=O)OCC(=O)Nc2cc(S(=O)(=O)N3CCCCC3)ccc2C)ccc1O 6.31 µM [inhibitor, single point]
CCNC(=S)Nc1ccc(Cl)cc1Cl 6.31 µM [inhibitor, single point]
CCOc1cc(C(=O)Nc2ccccc2F)cc(Br)c1OCC 7.08 µM [inhibitor, partial curve]
COc1cc(OC)cc(C(=O)Nc2ncc3c(n2)CC(C)(C)CC3=O)c1 5.62 µM [inhibitor, single point]
CCN(CC)c1ccc(/C=N/NC(=O)C(O)c2ccccc2)cc1 (centres undefined) 35.5 µM [activator, partial curve, poor fit]
CCN(CC)S(=O)(=O)c1cccc(NC(=O)COC(=O)CCC(=O)c2ccc(F)cc2)c1 10 µM [inhibitor, partial curve, poor fit]
CCOc1ccc(NC(=O)CN(C)c2ccc(S(=O)(=O)N(C(C)C)C(C)C)cn2)cc1OCC 0.794 µM [inhibitor, full curve, poor fit]
CC1CCCN(CCCNC(=O)c2coc3nc4ccccc4nc23)C1 (centres undefined) 22.4 µM [activator, partial curve]
Cc1cc(C)c(-c2cc(NC(=O)COC(=O)c3ccc(CO)cc3)n(-c3ccccc3)n2)cc1C 8.91 µM [inhibitor, single point]
Cc1ccc(Cn2c(=O)c3c(nc4n3CCN4Cc3ccco3)n(C)c2=O)cc1 39.8 µM [inhibitor, single point]
N#Cc1ccccc1NC(=O)Nc1cccc(Cl)c1 35.5 µM [activator, single point]
COc1ccc(-c2cc(C(=O)O)c3sc(N4CCCCC4)nc3n2)cc1OC 31.6 µM [activator, partial curve]
COc1ccccc1C1CC(c2ccco2)=NN1c1ccccc1 (centres undefined) 31.6 µM [activator, partial curve]

Activity change, negative = inhibition, inconclusive:
Cc1ccccc1-n1c(O)cc(=O)[nH]c1=S 15.2% [activator]
CC(=O)Nc1ccc(C(=O)N/C(=C/c2ccccc2)C(=O)Nc2cccc(C(=O)O)c2)cc1 7.63% [activator]
CCC(C)n1c(=N)c(C#N)cc2c(=O)n3cccc(C)c3nc21 (centres undefined) 16.3% [activator]
COc1ccc(N2CSC3=C(C#N)C(c4cc(OC)c(OC)cc4OC)CC(=O)N3C2)c(OC)c1 (centres undefined) -16.2% [inhibitor]
Cc1noc(C)c1C(=O)N1CCCC(C(=O)c2ccc(Cl)cc2)C1 (centres undefined) 15.3% [activator]
Nc1ccc2c(c1)COc1ccccc1O2 -15.9% [inhibitor]
Cc1ccsc1/C=C1\SC(N2CCOCC2)=NC1=O -18% [inhibitor]
Cc1cc(C)n(CC(C)C(=O)O)n1 (centres undefined) 16.1% [activator]
Cc1ccc(Oc2c(CO)c(-c3ccccc3)nn2C)cc1 -19.3% [inhibitor]
COc1ccc(NC(=O)CSc2nnc(NC(C)=O)s2)c([N+](=O)[O-])c1 11.6% [activator]
Cc1cc(C)n2nc(SCC(=O)Nc3c(C)n(C)n(-c4ccccc4)c3=O)nc2n1 17.4% [activator]
CC1Cc2ccccc2N1C(=O)c1ccc(N2CCCC2)c([N+](=O)[O-])c1 (centres undefined) -16.3% [inhibitor]
O=C(COc1cccnc1[N+](=O)[O-])Nc1cccc(S(=O)(=O)N2CCOCC2)c1 -18.1% [inhibitor]
O=C(O)CCSc1nnc(-c2ccc3c(c2)OCO3)o1 -15.1% [inhibitor]

Activity change, negative = inhibition, inactive:
Nc1ccc(O)c2c(=O)cc(-c3ccccc3Cl)oc12 -9% [at 15.4 µM]
Cn1cc(/C=N/n2cnc3scc(-c4ccc(Cl)cc4)c3c2=O)c2ccccc21 3.52%
CCOc1ccccc1-n1nnnc1SCC(=O)Nc1cc(C)on1 1.05%
O=C1/C(=C\c2ccc(O)c(O)c2)C(c2ccccc2)=NN1c1ccccc1 3.99%
